Source: the supplement of paper PMC11417369
This is one part of the list.

system: PF3D7_0420300 AP2 domain 1 (GST-tagged); test: gcPBM binding intensity (ln(normalized median fluorescence intensity)); higher = stronger DNA binding
Summary of the method: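 DNA-binding domains from P. falciparum, fused to GST and produced in E. coli, were put on an Agilent 4 × 180k double-stranded probe array for 1 h in 1× PBS holding 1% milk, 0.2 mg/ml BSA, 0.5% salmon testes DNA and 0.03% Triton X-100. Probes were primer-extended, 36 bp long and drawn from intergenic genomic regions, with negative controls included. After Alexa488 anti-GST antibody detection and a 488 nm scan, binding intensity was set as the highest Masliner-normalised natural-log median intensity across replicate spots of either probe orientation.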

Sequence	gcPBM binding intensity (ln)
TTACCTATTCTAAAATGTACACATTATATATGTGCT [XGTACX_site5776]	9.26
ACATGTTTCATATGTTGTACTAACTTAAATATAAAT [XGTACX_site6412]	9.16
TAAAGTACAGGAGTAAATTGAAAAAAAAAAAAAAAA [CACACA_negctrl_site1410]	8.73
TATAATATTCCTTTTTAACACACATATGAACAAATA [CACACA_site7932]	9.3
ATAAATAAATAAATACGTACATATATATATATATAT [XGTACX_site8838]	9.3
ATACATATATTTTTATGTACATATATTTTTTTTGTA [XGTACX_site4546]	9.26
TTGATATCTTTTTTTTGTACATATATTTATAAGTAA [XGTACX_site3538]	9.19
AAAATATAAGCCACTACACACATATATAAATGTATA [CACACA_site2639]	9.82
TTTTAGAGTGATATATATTAACTTTTAATAAAAAAA [CACACA_negctrl_site611]	8.72
TTTTTTTAAATTATATGTACATAATTTTAATTTTAT [XGTACX_site5086]	9.15
GTTATACACATATATACACACATATGTAGATATATA [CACACA_site7529]	9.58
ATAAAATAAAAAAGTAGTACACACTTCACGATATTT [XGTACX_site8289]	9.59
AATAAATAAACAAATTAACACACAGAATTTTTTTTT [CACACA_site8485]	9.59
ATTATGTTATATATATGTACATATATAATGTTCATA [XGTACX_site6184]	9.24
ATAATTATAAAATAAACACACATATATATTTATATG [CACACA_site440]	9.44
ATAATGATTATAATATGTACATAAATATATATATTA [XGTACX_site5029]	9.19
AAACAATACATATATTGTACATATATTATATTATAT [XGTACX_site8136]	9.31
AATTTGAAATAAAGTAGTACAGTATATAAAAATATA [XGTACX_site128]	9.37
TTAGAAATTCATTTTACACACAATTCAAAAGAATGT [CACACA_site2104]	9.25
CGGATCTATAAGTGTACACAATCTAGCGAAAAGTTT [CACACA_site4932]	9.2
AAAAAATCAAAACACACACACACACCCAAAAAAAAA [CACACA_site1444]	10.1
AATAAACAAATATGTACACACATATACCTATAAATA [CACACA_site7358]	9.75

Sequence	gcPBM binding intensity (ln)
ATATTAGATTAATTTACACACAGAAAATGAGATTTT [CACACA_site541]	9.44
CCAACATATATTATCACACACATATATATATATATA [CACACA_site2016]	9.58
TAGAGTATATATAAATGTACATATTTTATGCTAATT [XGTACX_site7821]	9.21
AAAAAATTAAATAATTACAAAAAAATAAAATAAAAA [GTGCAC_negctrl_site638]	9.35
AAAAATAATGCACATATATATAATATGTATATGTAT [CACACA_negctrl_site443]	9.37
TTATTGTAAATATATGCATGTGCAAAATGAAAAAAA [TGCATGCA_site399]	9.24
TTTTAAACAAGACACACACACATATATATATATATA [CACACA_site925]	9.62
ATGTTTACATATTAGGGTACATAATAAATTGCATAT [XGTACX_site6712]	9.25
CATGTATTTTATATTACACACTAATATTATATATAT [CACACA_site1508]	9.37
GAATGTATAAAATGAACACACGCCAAATTAAATGAA [CACACA_site3044]	9.45
ACATAAGAACATATTTGTACGTATATAAATTAAATA [XGTACX_site6127]	9.3
ACAACAAAAATAAGCACACACAAATATACATACATA [CACACA_site7664]	10.2
TTTTAAATCTTATATTCCCCACATAAATAGCTCTCT [GTGCAC_negctrl_site665]	8.98
TTATATATTAATAGTAGTACTATATTGAATCACCCC [XGTACX_site2868]	9.47
AGTTTATAGTGATATTGTACATATATATATATATAT [XGTACX_site572]	9.38
AAAATTTATATAAGCACACAAATATATATTTATATC [CACACA_site3291]	9.45
TTATTTTTGTTTTGAAGTACAAAAAAATATATTCTT [XGTACX_site6416]	8.92
TATTTATACTCAACTTTCTGTTATTCCAACTTTTTT [XGTACX_negctrl_site410]	9.4
ATATACAAATATATATATATATATATATATATATAT [CACACA_negctrl_site886]	9.07
GCAAATATGTTGATATGTACATATATATATATATAT [XGTACX_site445]	9.28
TATTTCTTTATTGGCACACATTTTTTCAATTATATA [CACACA_site4975]	9.62
ATTATTTTAATAAAACGTACAAAATATAAATCAAAA [XGTACX_site3770]	9.26

Sequence	gcPBM binding intensity (ln)
AAAAAATATACATATACACACATATGTATATATAAT [CACACA_site8676]	9.5
AATAACAAAATATTAACACACATAACATATTATAAA [CACACA_site2803]	9.8
TTTTTTCATATAAATACATGCACACAAAAATATCAA [TGCATGCA_site602]	9.26
TAATGTTTTTTTTGTTTACCAAAAATAATACATTAT [CACACA_negctrl_site203]	8.99
ATATATATATATGTGTGTACATATATGTGGATGGAT [XGTACX_site6240]	9.83
TTATAGGATCAAGCGCGTACATATCTTTATAAAAGA [XGTACX_site5775]	8.97
GTCATATATTATAATAGTACATAAATAATTGATGCC [XGTACX_site3567]	9.3
TTTTTCTATATTTTCTTTTATAAAATATATAATTTT [GTGCAC_negctrl_site345]	9.1
CACAGAAATAGAGATACACACACACCGATATTTATG [CACACA_site9313]	9.92
ATAGTTATTTTATAGCGTACACAATAAATATATAAA [XGTACX_site4445]	9.26
ATGTATTTATTATTTAGTACACATTATTTTCTTATA [XGTACX_site6365]	9.56
TAAACAGTATGCAACGCATGCGTTGTTATATATAAA [TGCATGCA_site232]	9.19
AAATTTTCTTTTAAGTGTACGAAATTTAGTATTTCA [XGTACX_site7819]	9.02
ATTTTTTTTTTTTTTTTTTTATTCTTAATTCATATA [CACACA_negctrl_site342]	9.35
TATATATAAATATATACACACATGAAAATAAATAAA [CACACA_site2514]	9.51
TTTTTGTTTGTTCACGACTACATTATGTCATAAATG [CACACA_negctrl_site597]	9.15
AGTAGATATAATTATAGTACTTTGATGTTTTCTTTA [XGTACX_site5038]	9.44
TTTTTTTTTAGAAAAACATGCATGTCCTAAAAATAA [TGCATGCA_site684]	8.68
ATATGATAAATTATATGTACTTAAAATATATTATAA [XGTACX_site5904]	9.05
TGGCAAAATAGGCACACACACATATACATCTATATT [CACACA_site6626]	9.97
AAAAAAAAAAAAAAAAAAAAAAAAACAATGAATTTA [GTGCAC_negctrl_site698]	9.23
GTAAATTATATAACAAATAAAAATGTACATATATAT [CACACA_negctrl_site408]	9.39

Sequence	gcPBM binding intensity (ln)
TCTTGTTATTTAAATGCATGTTGATTTTAAAAAATT [TGCATGCA_site840]	9.19
AATAAAAAGTAATAATAACGTATAATTTATTATACT [TGCATGCA_negctrl_site414]	9.14
TATACTTTATATATTTTGTATATATATTTTTTTTAT [TGCATGCA_negctrl_site530]	9.34
ATATATATAGATTGTACACACATTTATGCATATATA [CACACA_site3222]	9.57
ACGCAATATTAACAAGTGCATTATAACACATAACAT	9.29
ATAACATTCTATGTTGCACACAAAGAGAAAAATTTA [CACACA_site9322]	9.28
AGCATTTTAAAAGAAAAAAAAAAAAAAAAAAAAATA [GTGCAC_negctrl_site723]	8.96
ATCTATGTTCCTTTTACACACATAATCTTTTTTTTA [CACACA_site5468]	9.89
ATATATATATATTATACACACAAAAATATTTTGTAT [CACACA_site266]	9.43
CGTGGGAGCAGACACACACACACACGCATATTTATA [CACACA_site6290]	10.1
ATGGACAAAAAATATATACACACGAGGAAACCAACA [CACACA_site3726]	10.1
TTTTGTTTTTACGAATACTTTTTTAATTTTATTTAT [TGCATGCA_negctrl_site395]	9.05
CATGCATACTACATCTGTACACATACATTATATTTA [XGTACX_site2495]	9.56
TTAGTCGAATGATGTACACACATACAAAACATTTAT [CACACA_site6076]	9.53
ACTAATTACTATAAAACACACATATATATATATATA [CACACA_site2591]	9.36
AGAAAATATTTTGGTTGTACAGGCGATTTATATGTT [XGTACX_site7253]	9.42
AAAAAAAAAAAAAAAAAAAAAAAAAAAAGAAAAAAG [GTGCAC_negctrl_site583]	9
AAAAATTCTTGGCGCACACACTTTAAAAATTAAAAA [CACACA_site4498]	9.37
TTATATTTTCAGAATAGTACACATATATACATATAT [XGTACX_site2519]	9.19
GATCATTTAAAATAAGTAATATTTTTTTTACTTTTG [TGCATGCA_negctrl_site602]	8.98
TTATAAAAGAAAAAAAAAAAAAAAAAAAAAAAAAAA [CACACA_negctrl_site1006]	8.47
